Measured values: publication PMC9911399, “Two distinct binding modes provide the RNA-binding protein RbFox with extraordinary sequence specificity”
Changes are numbered by the printed parent chain; changes in the protein carry UniProt numbers. The list shows a part of the results.

T1: RBFOX1 RRM RbFoxmut (Fox-RRM*) (Homo sapiens, UniProt Q9NWB1 109-208, R118D;E147R;N151S;E152T)
T1 sequence: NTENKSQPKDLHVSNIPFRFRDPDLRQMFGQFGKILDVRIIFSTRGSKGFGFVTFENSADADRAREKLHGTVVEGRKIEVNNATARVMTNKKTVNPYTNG

B1: AAAACAG (DNA:RNA)
RNA: GGGAGACCGGAAUUCAGAUUGUCCAAAACAGUUAAAUCCCGUCGUAGCCACCA
DNA 1: CAATCTGAATTCCGGTCTCCC
DNA 2: TGGTGGCTACGACGGGATT
B2: GUUCCCC (DNA:RNA)
RNA: B1 RNA with A25G, A26U, A27U, A28C, A30C, G31C
DNA 1: CAATCTGAATTCCGGTCTCCC
DNA 2: TGGTGGCTACGACGGGATT
B3: CAGAAGA (DNA:RNA)
RNA: B1 RNA with A25C, A27G, C29A, A30G, G31A
DNA 1: CAATCTGAATTCCGGTCTCCC
DNA 2: TGGTGGCTACGACGGGATT
B4: AUGACCG (DNA:RNA)
RNA: B1 RNA with A26U, A27G, A30C
DNA 1: CAATCTGAATTCCGGTCTCCC
DNA 2: TGGTGGCTACGACGGGATT
B5: CCCAUUG (DNA:RNA)
RNA: B1 RNA with A25C, A26C, A27C, C29U, A30U
DNA 1: CAATCTGAATTCCGGTCTCCC
DNA 2: TGGTGGCTACGACGGGATT
B6: UAUCGAA (DNA:RNA)
RNA: B1 RNA with A25U, A27U, A28C, C29G, G31A
DNA 1: CAATCTGAATTCCGGTCTCCC
DNA 2: TGGTGGCTACGACGGGATT
B7: GCGGCCG (DNA:RNA)
RNA: B1 RNA with A25G, A26C, A27G, A28G, A30C
DNA 1: CAATCTGAATTCCGGTCTCCC
DNA 2: TGGTGGCTACGACGGGATT
B8: CAUUCCA (DNA:RNA)
RNA: B1 RNA with A25C, A27U, A28U, A30C, G31A
DNA 1: CAATCTGAATTCCGGTCTCCC
DNA 2: TGGTGGCTACGACGGGATT
B9: GGCCAAA (DNA:RNA)
RNA: B1 RNA with A25G, A26G, A27C, A28C, C29A, G31A
DNA 1: CAATCTGAATTCCGGTCTCCC
DNA 2: TGGTGGCTACGACGGGATT

target: T1, RBFOX1 RRM RbFoxmut (Fox-RRM*); assay: EMSA; HiTS-Eq, 1 nM pool, 10 min; buffer printed only for the single-RNA assays: 10 mM Tris pH 7.5, 150 mM NaCl, 3.4 mM EDTA, 0.001% NP-40, 30 C; conditions: tags: His6 N-terminal (pET28a); label: 5' 32P
In short: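 Purified RbFox RRM (wild type or mutant) was equilibrated for 10 min in 50 µL with 1 nM of a 5′-radiolabelled pool of RNA with 7 randomized nucleotides, its flanks annealed to DNA oligonucleotides, across increasing protein concentrations. Free RNA was separated by 8% native PAGE, excised, reverse-transcribed, PCR-barcoded and sequenced on an Illumina HiSeq 2500. Relative association constants came from read-count changes of each variant against the control reaction, normalised to the cognate motif.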

| Binder | binding signal |
| --- | --- |
| B1 | 0.0679 KA relative to UGCAUGU |
| B2 | 0.0749 KA relative to UGCAUGU |
| B3 | 0.093 KA relative to UGCAUGU |
| B4 | 0.119 KA relative to UGCAUGU |
| B5 | 0.0949 KA relative to UGCAUGU |
| B6 | 0.0952 KA relative to UGCAUGU |
| B7 | 0.133 KA relative to UGCAUGU |
| B8 | 0.0839 KA relative to UGCAUGU |
| B9 | 0.0651 KA relative to UGCAUGU |
